In the BET-seq Pho4 binding data (Le et al. 2018):
The list shows a part of the results. Values were computed here from the reads of four pooled replicates and scatter widely.

These sequences were tested against T1, Pho4 (S. cerevisiae) (UniProt P07270) (assay: relative binding free energy (BET-seq); higher = weaker binding). Settings: reference: library average.
T1 sequence: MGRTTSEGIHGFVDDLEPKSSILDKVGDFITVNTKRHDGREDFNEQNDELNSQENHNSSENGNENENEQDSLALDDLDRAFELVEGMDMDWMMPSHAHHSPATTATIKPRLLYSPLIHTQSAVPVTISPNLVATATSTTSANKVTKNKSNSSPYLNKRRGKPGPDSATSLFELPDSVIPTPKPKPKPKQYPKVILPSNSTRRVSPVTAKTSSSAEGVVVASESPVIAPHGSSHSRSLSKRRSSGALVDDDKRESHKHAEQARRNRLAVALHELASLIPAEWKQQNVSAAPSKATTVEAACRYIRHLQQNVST

| Sequence | relative binding free energy [kcal/mol] |
| --- | --- |
| AGTATCACGTGTTTGC | -0.02 |
| GCCGGCACGTGGTGTA | -0.19 |
| TTTTTCACGTGGGAGA | 0.29 |
| CAGGTCACGTGTCTTG | 0.12 |
| GGTACCACGTGGGTGA | -0.19 |
| ATTGTCACGTGGAATT | 0.25 |
| TGGTTCACGTGAGGAG | 0.42 |
| TTATTCACGTGAGTAG | 0.46 |
| TTCAGCACGTGTTGAT | 0.11 |
| GTTGACACGTGTCGGG | 0.1 |
| GAGTGCACGTGGAAGG | 0.11 |
| AGTTGCACGTGTGATT | 0.06 |
| GGTCTCACGTGTTGGT | 0.37 |
| GTCAACACGTGGTGGT | 0 |
| ATGATCACGTGTGGGC | 0.15 |
| GTGGTCACGTGAATAA | 0.33 |
| TGGAGCACGTGTTGTC | -0.16 |
| TGGGGCACGTGTGTCT | 0.01 |
| GGATTCACGTGTGAAA | 0.46 |
| CTGGTCACGTGGCTTT | 0.11 |
| TTGCGCACGTGTGTGC | -0.08 |
| CATTTCACGTGTGGGT | 0.25 |
| TGCTTCACGTGTGTGG | 0.2 |

| Sequence | relative binding free energy [kcal/mol] |
| --- | --- |
| GGGAGCACGTGAAGGG | 0.26 |
| TGTAGCACGTGTGCTC | 0.1 |
| ATTGACACGTGGTAAA | 0.01 |
| TTGATCACGTGCAGTA | 0.08 |
| CGGATCACGTGGGGAG | 0.13 |
| TTGCGCACGTGAGCGG | 0.09 |
| TTATTCACGTGGTGTT | 0.18 |
| TTGGACACGTGTAAAT | 0.05 |
| TTCAACACGTGCTGGG | 0.11 |
| GTCTGCACGTGAGGAT | 0.15 |
| GTTACCACGTGGGAGG | -0.11 |
| GGGGCCACGTGGGTTG | -0.26 |
| CAGGGCACGTGCGGGA | -0.11 |
| TTAGGCACGTGTATGT | -0.1 |
| ACTTGCACGTGTGTGA | 0.09 |
| TTTGCCACGTGAAGGT | 0.03 |
| AGGGACACGTGTAGTG | -0.02 |
| TATTTCACGTGCATAG | 0.24 |
| GCATACACGTGTGTTG | 0.13 |
| TTCCGCACGTGGGGTG | -0.23 |
| AAGTACACGTGATGTT | 0.17 |
| GTGGACACGTGGGCGT | -0.16 |
| GTGGTCACGTGGTGCG | 0.1 |

| Sequence | relative binding free energy [kcal/mol] |
| --- | --- |
| GGGCGCACGTGGAGTA | -0.07 |
| CTATGCACGTGTTATT | 0.02 |
| TATGCCACGTGGGTGT | -0.18 |
| CATGGCACGTGGGTAA | -0.14 |
| GCGTTCACGTGTGTAG | 0.31 |
| TTCTTCACGTGCAGTG | 0.21 |
| TTAAACACGTGTACGT | 0.02 |
| GGCTTCACGTGAGGGT | 0.35 |
| GTGTGCACGTGGTAAA | -0.01 |
| GGTAACACGTGGGTGG | -0.06 |
| CTGGTCACGTGATTGT | 0.11 |
| TTAGTCACGTGATGCG | 0.16 |
| GAGTGCACGTGTATGG | -0.02 |
| TAGGTCACGTGGTAGC | 0.15 |
| GTGATCACGTGGGTCT | 0.14 |
| TTTCGCACGTGAGGTT | 0.23 |
| GTTTTCACGTGCAAGG | 0.24 |
| GGTAGCACGTGTTAAG | -0.05 |
| ATTTGCACGTGTACGG | 0.05 |
| AGAGGCACGTGGTTGC | -0.17 |
| TGAGTCACGTGTAATG | 0.16 |
| TGTTTCACGTGTTAGA | 0.44 |
| TGCAACACGTGGTTTT | -0.02 |

| Sequence | relative binding free energy [kcal/mol] |
| --- | --- |
| GCGGTCACGTGTTATG | 0.11 |
| GGATGCACGTGAGGAG | 0.29 |
| TGCGCCACGTGAGGTG | 0 |
| GAGGACACGTGAGGAG | 0.42 |
| AATTGCACGTGCAGTT | -0.02 |
| GGTATCACGTGGAGTG | 0.17 |
| GGTCTCACGTGTAGAT | 0.45 |
| GGGGTCACGTGAGGTG | 0.39 |
| GATAGCACGTGTAATT | 0.1 |
| GTGTACACGTGATTGT | 0.11 |
| GGGGGCACGTGAGCGT | 0.07 |
| GTAGTCACGTGTATTA | 0.09 |
| TACGTCACGTGGTGTG | -0.05 |
| TGGCTCACGTGGTCAG | 0.03 |
| GCTTTCACGTGTTTGA | 0.39 |
| CTTTTCACGTGATTGC | 0.37 |
| AGTGACACGTGGTAGG | -0.03 |
| TGGTGCACGTGAGGGG | 0.16 |
| ATGATCACGTGGAGGT | -0.04 |
| GGGTTCACGTGGCGTA | 0.29 |
| GTGTTCACGTGAAGTG | 0.38 |
| TTTATCACGTGTTCGT | 0.17 |
| AGATTCACGTGGCTGA | 0.24 |

| Sequence | relative binding free energy [kcal/mol] |
| --- | --- |
| GGATACACGTGGGACG | 0.02 |
| GTGGTCACGTGGTCGA | -0.02 |
| GTAATCACGTGGTAGT | 0.11 |
| TGTCGCACGTGGCAAG | -0.07 |
| GCTTCCACGTGTGGGT | 0.33 |
| CAGGTCACGTGGGTGC | -0.05 |
| TTCTGCACGTGTGTCG | -0.04 |
| GTTAGCACGTGTCGCG | 0 |
| TAAGTCACGTGGAGGC | 0.12 |
| CTGTCCACGTGGGTGA | -0.02 |
| TGTTACACGTGGTCAT | 0.03 |
| GGGATCACGTGCGGAG | 0.19 |
| TGGCACACGTGGAGCG | 0.06 |
| TTGATCACGTGAGTAT | 0.29 |
| ATTGTCACGTGTTCTC | 0.25 |
| TCGGTCACGTGGTGTG | 0.09 |
| TACATCACGTGCGGGG | 0.07 |
| GGGTTCACGTGGGGGA | 0.26 |
| AGAGACACGTGTAAGG | 0.05 |
| TGATGCACGTGTTGGC | -0.01 |
| TAATGCACGTGTTGTG | 0.02 |
| GAGCGCACGTGCAGGG | -0.02 |
| ATGGTCACGTGACAGG | 0.07 |
